In all, about 33,000 sequences were measured (“E-score (-0.5 to 0.5)”: median about -0.011, highest 2% from about 0.28 on). Some of the results follow.
Biological target: T1, Gcr1 (UniProt P07261)
T1 sequence: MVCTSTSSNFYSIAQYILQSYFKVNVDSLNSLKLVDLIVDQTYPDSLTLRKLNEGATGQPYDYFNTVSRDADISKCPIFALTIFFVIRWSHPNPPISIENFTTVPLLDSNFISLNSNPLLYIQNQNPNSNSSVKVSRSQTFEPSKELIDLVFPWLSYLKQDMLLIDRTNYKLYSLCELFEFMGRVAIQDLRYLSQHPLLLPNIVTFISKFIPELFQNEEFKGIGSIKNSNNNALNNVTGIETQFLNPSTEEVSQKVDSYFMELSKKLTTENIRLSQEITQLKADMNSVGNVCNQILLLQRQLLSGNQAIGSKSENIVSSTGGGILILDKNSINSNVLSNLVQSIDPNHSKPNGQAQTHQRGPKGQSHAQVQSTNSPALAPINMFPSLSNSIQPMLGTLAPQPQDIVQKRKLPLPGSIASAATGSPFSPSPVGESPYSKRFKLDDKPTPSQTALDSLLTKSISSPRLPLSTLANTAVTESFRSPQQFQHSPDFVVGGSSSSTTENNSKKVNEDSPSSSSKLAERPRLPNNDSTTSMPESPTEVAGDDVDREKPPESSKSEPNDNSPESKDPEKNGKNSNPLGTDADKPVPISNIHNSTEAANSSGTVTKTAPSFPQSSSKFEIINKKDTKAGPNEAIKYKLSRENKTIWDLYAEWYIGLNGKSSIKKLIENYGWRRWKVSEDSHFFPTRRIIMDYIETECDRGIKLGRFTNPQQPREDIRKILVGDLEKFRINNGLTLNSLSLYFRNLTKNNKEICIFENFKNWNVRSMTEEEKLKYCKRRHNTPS
Assay: PBM E-score (8-mer binding enrichment) (E-score (-0.5 to 0.5)); higher = stronger / more preferred TF binding; most listed sequences are background and not binding sites
Settings: protein concentration: 100 nM; construct: GST-full length
In short: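 Universal all-10-mer Agilent arrays, double-stranded by primer extension on fresh or once-stripped slides, were probed with about 100-200 nM GST-tagged yeast transcription factors made by PURExpress. Fluorescent anti-GST detected bound protein, and masliner normalised the scans. E-scores from the Universal PBM Analysis Suite were given to each ungapped eight-base word pooled with its reverse complement.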

Sequence | PBM E-score
TCTGGGCA | 0.122
ACAAACAG | -0.0378
AGCCGACT | 0.101
AGCGGAGG | -0.0972
CTTGGCTC | 0.00348
AACCTATC | 0.0326
AAAGCTCT | -0.192
ACGAAGGG | -0.127
CCGTCACA | -0.0656
TACTTTCA | 0.00431
CTTACATA | -0.0232
CAATCGTC | -0.185
AGATACCG | 0.239
ACGTAGGC | 0.0527
GGCGTTAC | -0.0932
ACCTTAGG | 0.0879
CCCTACTC | -0.0821
AGTGACAC | -0.0357
AATCTACA | 0.12
GAATCACA | -0.0739
CCCCCTTA | -0.18
AGCTTGAC | -0.0336
GGGCCACA | -0.0384
CCGTCGTC | -0.167
ATTCGCGC | -0.102

Sequence | PBM E-score
CCGCGCAG | -0.219
CCGTATCG | 0.0996
CGCTTAAC | 0.111
CAGACGAG | 0.0723
CGCAGACG | -0.098
AGTCCTCA | -0.104
ATCCTGCA | 0.152
CAAGTACG | -0.0508
CATAGGTC | -0.0679
GGGCCCCA | 0.226
AGAAGCCC | 0.386
AAGGTCCA | -0.0929
GTGTTGAA | -0.0892
ATTGAATG | -0.0928
GACCGATC | -0.167
ATTACTCA | -0.13
ACTATGCC | -0.0755
AGTACTAT | -0.0772
CCAAATGC | 0.128
AAAAGTGG | 0.381
ACAATGTC | -0.0997
AACACTCT | -0.0466
CCCTGCGG | -0.124
AGCCAGTG | 0.0186
AAGCGTGT | 0.00535

Sequence | PBM E-score
AGTTGTTA | 0.0638
ATCCGCCG | 0.103
CGCTATAA | 0.128
TCGGGTCA | -0.0362
CACTTGAA | 0.094
AAACGCTT | 0.0018
TCTTAACA | 0.0545
CGCATAGA | -0.00804
CGAGACGC | 0.131
AATACATT | 0.0975
AGTTAACC | -0.232
AGGAGCAT | -0.0673
CAATGCAG | 0.0715
CTTACAGA | 0.0818
AGCGCAGC | -0.141
AGATAAGA | 0.208
CTAATCGA | -0.0752
ACTCTGAA | 0.0345
AATACCGA | 0.0609
CGTGACTA | -0.109
ACAGGCAC | -0.0443
CAGTCAAA | -0.138
CCCGATGA | -0.0833
TATGGCGA | -0.0402
ATAGAGAA | -0.111

Sequence | PBM E-score
ACCCCACT | 0.129
CATATAAC | -0.133
CGGGTTCA | -0.204
AGTCCACA | 0.0891
CACTTCCA | 0.312
AGCGCCTC | 0.103
ACAGTATG | -0.0202
TCTAGCCA | 0.0145
CCCTTCGC | -0.0758
ACTCCGGG | 0.12
GGGGATAA | 0.0423
AAAGCAAC | 0.0209
AACAGTCG | -0.123
AAGCACAG | -0.0841
AACATTAT | 0.0735
CAGATGTA | 0.0597
AAATGTAT | 0.177
CAAGCCGA | -0.038
GGTCTTCA | -0.162
ATCATATC | -0.0313
GACAATGA | -0.00202
GAGTGCCA | 0.0104
ATAGAGAT | -0.167
GCAGCCGA | 0.277
GCACGAAA | -0.0486

Sequence | PBM E-score
GCGCTGTA | -0.124
ATTCGTGA | -0.136
ACATTGCG | -0.151
AACACCCA | -0.0911
CGCTACTA | 0.127
GCCAAGTA | 0.123
CGCAAAAA | 0.167
CAAGAATC | 0.247
TGCTGACA | 0.0611
AAATATAT | 0.152
AACAACCG | -0.0918
ATCAACGA | 0.0103
TATAATCA | -0.0344
CAGGACAC | -0.0467
TGATCTAA | -0.135
GTAGAAAA | 0.0747
CGGATGTA | -0.227
AGGAGGCA | 0.00383
TTGGTAAA | 0.177
GAATCGCC | 0.00157
CCCGTGAA | -0.092
AGGCTTCC | 0.436
ACTTACGG | 0.0589
ATGAGGCC | -0.0192
GCTGTGGA | 0.0554

Sequence | PBM E-score
AAATGGCC | -0.203
ACAGACGG | -0.12
CTTGACTC | 0.0413
GGTCTGAA | -0.151
AGCCGATA | -0.152
CAAATTCC | 0.0436
CCATAGAA | 0.152
CACGGTTA | 0.069
CCGGGCCC | 0.14
AGTACCAA | 0.155
AGCACGTC | 0.134
ACGGCGGA | -0.0348
CAAAGGGA | -0.206
TGCGTTAA | 0.124
AGTCGTGG | -0.0196
GAACAAAC | -0.0101
ATACACAC | -0.0453
TTACAGAA | 0.108
GTATCACA | -0.221
AACATCAC | -0.0944
GGAATCGA | 0.141
CTAGCAAG | -0.0902
GGAGAACA | -0.251
CAAACCTG | 0.0135
AAATCCAA | 0.142

Sequence | PBM E-score
ATAACTGG | 0.131
GAAGGAGA | -0.0033
CAGAGAGA | -0.26
CACGTATC | 0.0921
CAGGGTCA | -0.117
ATGGAGGA | -0.11
GAGGCCTA | -0.125
AGGGCGCA | -0.0301
CTGAGCGA | 0.0143
GGTAAAAC | -0.056
ACAATCCG | -0.0948
CGGTTTCA | 0.0896
CCTTGTGA | -0.0583
CGCTGCCC | 0.164
CACAACGA | -0.0328
CAAGGTGG | -0.142
CGGGGTAG | -0.136
AATTATTC | 0.136
GCAGATTA | 0.0499
CAGTGCCG | -0.104
AAATCGCA | -0.021
AGAAATTC | 0.127
ACCACCAC | 0.0845
AGCTAAGG | -0.342
ACGCCTTG | -0.0123

Sequence | PBM E-score
AGTCTGAA | -0.131
AGTACGGA | 0.0175
ACTCAGAC | -0.0163
AAAACAGT | 0.00474
ACAGCCCG | -0.248
ATAGTCTC | -0.0618
AAAGCTTT | -0.163
AATCTCTG | 0.0202
CCGGCTGC | 0.314
CAATAAAA | 0.104
AGAGAGAA | -0.169
AAAAGGCC | -0.304
CTGATGGA | -0.101
AAAAACGG | 0.153
CCAATTAA | 0.135
AGTGTTAA | -0.0187
ACTAACAG | 0.0424
AACTCCGA | 0.0285
GAGTCAGA | -0.0648
CTGTAGAA | 0.144
AGAGGAAA | -0.0469
ACTGAGCC | 0.0241
GATAGCAA | -0.0125
ATGCATTA | -0.0992
AGGACAAT | 0.0166

Sequence | PBM E-score
ACACAGAG | -0.246
CCGTTATA | 0.11
ATGATCTG | -0.132
AGGGACCT | -0.0783
ACAACTGC | 0.0629
AAATACAT | 0.138
GAAGTTAA | 0.0459
CAAACCAC | -0.00581
ACATCAAT | 0.114
AGGCTGAG | -0.177
CCAAAGTA | 0.133
CCGGGAGC | 0.157
CGCTGTGC | -0.0976
CAACATCC | 0.0729
CGACAAGC | 0.00356
ATAGCCAG | 0.0137
GAAAAGGA | 0.0614
ATCAATGC | -0.0961
AACATCCA | 0.193
